# Laboratory results from the supplement of paper PMC9446081.
# Among all 39,000 compounds or so, about 220 (0.56%) showed activity. This is one part of the list.
# Tested on: Escherichia coli K-12 BW25113
# Assay: relative growth (OD600 normalised to plate interquartile mean) (fraction); higher = less growth inhibition, active = 0.2 or less
# Conditions: 50 µM; LB; incubation time: overnight (16-24 h)
# 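Further: static incubation at 37 °C against the wild-type strain, values averaged over two biological replicates.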
row,Structure (SMILES),relative growth
1,COC(=O)[C@H](Cc1ccccc1)N1CC2=C[C@@H](C3CC3)n3c(=O)n(C)c(=O)n3[C@H]2[C@@H]1[C@@H](O)CCn1cc(CCC(=O)NO)nn1,inactive: 0.957
2,COCCn1cc2c(n1)[C@H](CNC(=O)COC)OCC2,inactive: 1.04
3,COc1cc(CN2CCC(C(=O)N[C@@H](c3ccc(F)cc3)c3ccc4ccccc4n3)CC2)cc(OC)c1,inactive: 0.977
4,C[C@@H]1CN([C@@H](C)CO)C(=O)Cc2cc(N(C)C)ccc2O[C@@H]1CN(C)S(=O)(=O)c1cn(C)cn1,inactive: 1
5,COc1ccc(S(=O)(=O)Nc2ccc3c(c2)C(=O)N([C@@H](C)CO)C[C@@H](C)[C@H](CN(C)C(=O)Nc2cccc4ccccc24)O3)cc1,inactive: 0.979
6,C[C@H](CO)N1C[C@H](C)[C@H](CN(C)S(=O)(=O)c2ccccc2)Oc2ncc(C#CC(C)(C)O)cc2C1=O,inactive: 1.01
7,COc1ccc(S(=O)(=O)N(C)C[C@H]2Oc3ccc(NC(=O)Cn4cnnn4)cc3CC(=O)N([C@H](C)CO)C[C@H]2C)cc1,inactive: 1.01
8,COc1ccc2c3c([nH]c2c1)[C@H](CO)N(Cc1nccs1)C[C@]13CCN(CC1)C(=O)C1CCOCC1,inactive: 1.01
9,NCCN1CCC(C(=O)O)CC1,inactive: 1.02
10,S=c1cc(-c2ccccc2)oc(-c2ccccc2)c1,inactive: 0.932
11,C[C@H](CO)N1C[C@H](C)[C@H](CN(C)S(=O)(=O)c2ccc(C#N)cc2)Oc2ncc(-c3ccc(F)cc3)cc2C1=O,inactive: 0.989
12,C[C@@H]1CN([C@@H](C)CO)C(=O)c2cc(NC(=O)NC3CCCCC3)ccc2O[C@@H](C)CCCCO[C@@H]1CN(C)C(=O)Nc1ccc2c(c1)OCO2,inactive: 1.02
13,COc1ccccc1S(=O)(=O)N1C[C@H](O)COC[C@@H]2O[C@H](CC(=O)O)CC[C@H]21,inactive: 0.989
14,Cc1ccc(S(=O)(=O)Nc2cccc3c2O[C@@H](CN(C)S(=O)(=O)c2cccs2)[C@@H](C)CN([C@H](C)CO)C3=O)cc1,inactive: 0.961
15,C[C@H]1CN([C@@H](C)CO)C(=O)c2cccc(NS(=O)(=O)c3ccc(Cl)cc3)c2O[C@H]1CN(C)S(=O)(=O)c1cn(C)cn1,inactive: 1.01
16,C[C@H]1CN([C@@H](C)CO)S(=O)(=O)c2ccc(C#Cc3ccccc3F)cc2O[C@@H]1CN(C)CC1CCOCC1,inactive: 1.01
17,Cn1nccc1NC(=O)/C=C/C(=O)O,inactive: 1.04
18,COc1ccc(S(=O)(=O)Nc2ccc3c(c2)C(=O)N([C@H](C)CO)C[C@@H](C)[C@@H](CN(C)S(=O)(=O)c2ccc(Cl)cc2)OCCCC[C@@H](C)O3)cc1,inactive: 1.04
19,Cc1noc(C)c1NC(=O)Nc1cccc2c1O[C@@H](CN(C)Cc1ccc(C(=O)Nc3ccccc3N)cc1)[C@H](C)CN([C@H](C)CO)C2=O,inactive: 1.02
20,Nc1nnnn1-c1ccccc1,inactive: 0.987
21,CC(C)[Si]1(C(C)C)O[C@@H](c2ccccc2)c2cc(C3CC3)nc(-c3ccc(Oc4ccccc4)cc3)c21,inactive: 1.02

row,Structure (SMILES),relative growth
1,C[C@@H]1CN([C@H](C)CO)C(=O)c2cc(C3=CCCCC3)cnc2O[C@H]1CN(C)S(=O)(=O)c1cn(C)cn1,inactive: 1.01
2,CC(C)NC(=O)Nc1ccc2c(c1)C(=O)N([C@@H](C)CO)C[C@@H](C)[C@H](CN(C)Cc1ccc(-c3ccccc3)cc1)O2,inactive: 1.04
3,Cc1noc(C)c1NC(=O)Nc1ccc2c(c1)C(=O)N([C@@H](C)CO)C[C@H](C)[C@H](CN(C)C(=O)NC1CCCCC1)OCCCC[C@H](C)O2,inactive: 1.03
4,C[C@H](CO)N1C[C@H](C)[C@@H](CN(C)C(=O)Cc2cccnc2)Oc2ncc(C#Cc3ccccc3F)cc2C1=O,inactive: 1.01
5,Nc1ncnc(NCc2cccnc2)c1[N+](=O)[O-],inactive: 0.98
6,Cc1noc(C)c1S(=O)(=O)Nc1ccc2c(c1)C(=O)N([C@H](C)CO)C[C@H](C)[C@@H](CN(C)S(C)(=O)=O)O2,inactive: 0.988
7,C[C@@H]1CCCCO[C@@H](CN(C)S(=O)(=O)c2ccc(F)cc2)[C@H](C)CN([C@@H](C)CO)C(=O)c2cc(NC(=O)C3CCCCC3)ccc2O1,inactive: 1.02
8,C[C@@H]1CN([C@H](C)CO)C(=O)Cc2cc(NC(=O)CCC(F)(F)F)ccc2O[C@@H]1CN(C)S(=O)(=O)c1cn(C)cn1,inactive: 0.982
9,CNC(=O)CN1CCO[C@H]2CN(C(=O)c3cnccn3)C[C@@H]21,inactive: 1
10,Cn1c(=O)c2cc(S(=O)(=O)NCCC(=O)NC3CCCC3)ccc2n(C)c1=O,inactive: 1.02
11,CCS(=O)(=O)N1C[C@]2(CCN(CC2)S(=O)(=O)c2cn(cn2)C)c2c(n(c3cc(ccc23)OC)C)[C@@H]1CO,inactive: 1
12,CN1CCc2onc(Cn3ccnc3)c2C1,inactive: 1
13,Cc1ccc(S(=O)(=O)N(C)C[C@@H]2OCCCC[C@H](C)Oc3ccc(NC(=O)C4CCCCC4)cc3C(=O)N([C@H](C)CO)C[C@H]2C)cc1,inactive: 1.01
14,C[C@@H]1CN([C@@H](C)CO)C(=O)Cc2cc(NC(=O)CCCCCC(=O)Nc3ccccc3N)ccc2O[C@@H]1CN(C)C(=O)Nc1ccc(C(F)(F)F)cc1,inactive: 1.02
15,C[C@@H]1CN([C@@H](C)CO)C(=O)c2cc(NC(=O)Nc3ccc(C(F)(F)F)cc3)ccc2O[C@@H](C)CCCCO[C@@H]1CN(C)C(=O)Nc1ccccc1,inactive: 1
16,COCC(=O)N(C)C[C@@H]1Oc2cc(C#CCC3CCCC3)ccc2S(=O)(=O)N([C@@H](C)CO)C[C@@H]1C,inactive: 0.973
17,COc1ccc(S(=O)(=O)Nc2ccc3c(c2)C(=O)N([C@H](C)CO)C[C@@H](C)[C@@H](CN(C)Cc2ccccc2)OCCCC[C@@H](C)O3)cc1,inactive: 0.988
18,C[C@@H]1CCCCO[C@@H](CN(C)S(=O)(=O)c2ccc(Cl)cc2)[C@@H](C)CN([C@H](C)CO)C(=O)c2cc(NS(=O)(=O)c3ccc(Cl)cc3)ccc2O1,inactive: 1.01
19,CS(=O)(=O)N1[C@@H]2Cn3c(ccc(C4=CCCCC4)c3=O)[C@H]1[C@@H](C(=O)N1CCOCC1)[C@@H]2CO,inactive: 1.01
20,C[C@H]1CN([C@@H](C)CO)S(=O)(=O)c2ccc(C#CC3CC3)cc2O[C@H]1CN(C)Cc1ccc(F)cc1,inactive: 0.918
21,C[C@H](CO)N1C[C@H](C)[C@@H](CN(C)C(=O)Nc2ccc(C(F)(F)F)cc2)Oc2ccc(NS(=O)(=O)c3ccc(F)cc3)cc2C1=O,inactive: 0.995

row,Structure (SMILES),relative growth
1,C[C@@H]1CN([C@H](C)CO)C(=O)c2cc(NC(=O)Nc3ccc4c(c3)OCO4)ccc2O[C@@H](C)CCCCO[C@@H]1CN(C)Cc1ccccc1,inactive: 0.985
2,COc1ccc(C(=O)Nc2ccc(CN3C(=O)[C@]4(O[C@H](CC(=O)N(CCO)Cc5ccccc5)[C@@H]([Si](C)(C)c5ccc(OC)cc5)[C@@H]4C)c4ccccc43)cc2)cc1,inactive: 1.03
3,C[C@H]1CN([C@@H](C)CO)C(=O)Cc2cc(NC(=O)Cn3cnnn3)ccc2O[C@H]1CN(C)S(=O)(=O)c1ccc(F)cc1,inactive: 1.01
4,N[C@@H](CC(=O)N1CCn2c(nnc2C(F)(F)F)C1)Cc1cc(F)c(F)cc1F,inactive: 0.977
5,CCS(=O)(=O)Nc1ccc2c(c1)C(=O)N(C)[C@@H]1CC[C@H](CC(=O)NCCOC)O[C@@H]1CO2,inactive: 0.998
6,COc1ccc(NC(=O)Nc2cccc3c2O[C@H](CN(C)Cc2ccc(C(F)(F)F)cc2)[C@@H](C)CN([C@@H](C)CO)C3=O)cc1,inactive: 0.817
7,CCCNC(=O)N1C[C@H](O)COC[C@H]2O[C@@H](CC(=O)N3CCN(C)CC3)CC[C@@H]21,inactive: 0.989
8,C[C@@H]1CN([C@H](C)CO)C(=O)c2cccc(NC(=O)C3CCOCC3)c2O[C@H]1CN(C)C(=O)NC1CCCCC1,inactive: 0.998
9,C[C@@H]1CN([C@@H](C)CO)S(=O)(=O)c2ccc(C#CC3CC3)cc2O[C@H]1CN(C)C(=O)c1cccc(F)c1,inactive: 1.02
10,C[C@@H]1CCCCO[C@H](CN(C)S(=O)(=O)c2ccc(Cl)cc2)[C@H](C)CN([C@@H](C)CO)C(=O)c2cc(NC(=O)Nc3cccc4ccccc34)ccc2O1,inactive: 1.02
11,Cc1noc(C)c1S(=O)(=O)Nc1ccc2c(c1)C(=O)N([C@H](C)CO)C[C@@H](C)[C@H](CN(C)C(=O)NC1CCCCC1)O2,inactive: 1.01
12,C[C@H](CO)N1C[C@H](C)[C@H](CN(C)S(=O)(=O)c2ccccc2F)Oc2cc(-c3ccncc3)ccc2S1(=O)=O,inactive: 1.01
13,C[C@@H]1CN([C@H](C)CO)C(=O)c2cc(NC(=O)Nc3ccc(F)cc3)ccc2O[C@@H](C)CCCCO[C@H]1CN(C)Cc1ccc(Cl)c(Cl)c1,inactive: 0.997
14,CN(C)CCN1C[C@@H]2CN(C(=O)c3cnc[nH]3)C[C@H]2C1=O,inactive: 0.973
15,CCC(=O)N(C)C[C@@H]1Oc2ncc(C#C[C@@H](C)O)cc2C(=O)N([C@@H](C)CO)C[C@@H]1C,inactive: 1.04
16,C[C@@H]1CN([C@H](C)CO)C(=O)c2cccc(NS(=O)(=O)c3cccs3)c2O[C@H]1CN(C)Cc1ccncc1,inactive: 0.993
17,N=C(CN1CCCCC1)NO,inactive: 0.989
18,COc1ccc(S(=O)(=O)N(C)C[C@H]2Oc3ccc(N(C)C)cc3CC(=O)N([C@@H](C)CO)C[C@H]2C)cc1,inactive: 0.99
19,CCCCn1c(SCC(N)=O)nc2c1c(=O)n(C)c(=O)n2C,inactive: 1.01
20,Cc1noc(C)c1NC(=O)Nc1ccc2c(c1)C(=O)N([C@@H](C)CO)C[C@H](C)[C@@H](CN(C)C(=O)Nc1cccc3ccccc13)OCCCC[C@@H](C)O2,inactive: 0.991
